# According to PubChem BioAssay AID1645887 (National Center for Advancing Translational Sciences (NCATS), 2021):
# “And” between values parts separate entries of the source, which are not always exact repeats. Identical values can stand only once. Hit rate of the full screen: of about 16,000 compounds, about 40 (0.2%) were called active. Roughly 1% stayed inconclusive and do not appear here. Calls come from the whole dose curve; as a rule, active = well fitted activation curve with a large enough effect; inconclusive = small, poorly fitted or top-dose-only effect, or another doubt; inactive = no such curve, though single readings can be large or run the other way. Some of the results follow.
# Biological target: Rap guanine nucleotide exchange factor 4 (Homo sapiens) (UniProt Q8WZA2)
# Chain of UniProt Q8WZA2 (Q8WZA2 whole entry, looked up): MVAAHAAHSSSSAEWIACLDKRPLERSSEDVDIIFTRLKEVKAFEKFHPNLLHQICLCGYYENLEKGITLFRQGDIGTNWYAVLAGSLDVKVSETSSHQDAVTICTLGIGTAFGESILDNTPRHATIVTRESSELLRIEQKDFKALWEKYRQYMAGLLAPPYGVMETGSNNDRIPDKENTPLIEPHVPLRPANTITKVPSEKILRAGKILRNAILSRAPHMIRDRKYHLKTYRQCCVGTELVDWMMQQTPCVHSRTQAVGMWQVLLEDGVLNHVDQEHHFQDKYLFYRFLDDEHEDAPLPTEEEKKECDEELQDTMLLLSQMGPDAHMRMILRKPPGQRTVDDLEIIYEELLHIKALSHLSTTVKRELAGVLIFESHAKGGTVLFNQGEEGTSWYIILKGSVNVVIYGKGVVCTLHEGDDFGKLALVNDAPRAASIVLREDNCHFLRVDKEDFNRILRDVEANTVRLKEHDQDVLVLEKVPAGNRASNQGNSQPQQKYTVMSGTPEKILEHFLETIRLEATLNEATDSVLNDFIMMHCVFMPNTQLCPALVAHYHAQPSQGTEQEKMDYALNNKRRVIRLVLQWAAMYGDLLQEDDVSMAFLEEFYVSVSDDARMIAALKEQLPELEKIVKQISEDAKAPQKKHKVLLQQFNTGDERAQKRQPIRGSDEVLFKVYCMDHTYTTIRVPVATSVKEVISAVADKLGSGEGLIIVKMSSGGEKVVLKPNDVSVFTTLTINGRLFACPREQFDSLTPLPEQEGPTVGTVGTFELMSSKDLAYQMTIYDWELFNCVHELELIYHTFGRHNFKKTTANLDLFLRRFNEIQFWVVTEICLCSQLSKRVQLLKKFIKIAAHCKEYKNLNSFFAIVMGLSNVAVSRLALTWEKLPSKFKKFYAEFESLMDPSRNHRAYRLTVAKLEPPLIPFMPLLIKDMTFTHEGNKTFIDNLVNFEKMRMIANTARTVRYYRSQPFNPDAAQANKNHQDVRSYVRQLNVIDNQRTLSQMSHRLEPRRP
# Assay: Validation qHTS for agonist of cAMP-regulated guanine nucleotide exchange factor 4 (EPAC2);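 for activation: exchange makes BODIPY-GDP fluorescence drop when released from Rap1B; series mostly up to about 150 µM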
# Conditions: EPAC2 Rap1B BODIPY-GDP exchange, fluorescence; activation: hits give high values
# Procedure, shortened: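 Fluorescent exchange assay: 100 nM EPAC2 with 250 nM RAP1B-BODIPY-GDP and 50 uM GDP; compound added, 5 min at room temperature, then read (ex 480/em 540 nm) every 5 min for 30 min. Normalized to 6.5 mM cAMP agonist control.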
# % is set by controls: 0 for no effect and ±100 for the full control effect; potency is the fitted concentration of half-maximal effect.
SMILES,activation,Potency
Cc1c(N(C)CS(=O)(=O)O)c(=O)n(-c2ccccc2)n1C,inactive: -15.3% and inactive: -6.02%,
O=C(c1cnccn1)N1CCC2(CC1)CN(c1ncccn1)C2,inactive: -12%,
CC(=O)N1CCC2(CC1)CN(Cc1cc(C(F)(F)F)cc(C(F)(F)F)c1)C2,inactive: -17.2%,
Cc1cccc(C(=O)NCc2nc(-c3cccc(NC(=O)C4CCCN(C)C4)c3)oc2C)n1 (stereo not drawn),inactive: -9.23%,
C=CCN1[C@@H](Cc2ccccc2)COCCS1(=O)=O,inactive: -11.2%,
COc1cc2c3cc1Oc1c(OC)c(OC)cc4c1[C@@H](Cc1ccc(O)c(c1)Oc1ccc(cc1)C[C@@H]3N(C)CC2)N(C)CC4,inactive: 0.118%,
CCCCCCCCCCCCC(O)C(=O)O (stereo not drawn),inactive: -2.32%,
OC1CCN(Cc2ccc3c(c2)CN(Cc2ccc(Oc4ncccn4)cc2)CCO3)CC1,inactive: -1.28%,
O=c1[nH]c(=O)n(C2CCCO2)cc1F (stereo not drawn),inactive: -16.5%,
CC(NCCC(c1ccccc1)c1ccccc1)c1ccccc1 (stereo not drawn),inactive: -13.4%,
CCCCCCCCCCCCOCCCN,inactive: -13.9%,
FC(F)(F)c1ccccc1-c1ccc2ncnc(NCc3cccs3)c2c1,inactive: -1.68%,
CC1=C(/C=C/C(C)=C/C=C/C(C)=C/C=C/C=C(C)/C=C/C=C(C)/C=C/C2=C(C)C(=O)C(O)CC2(C)C)C(C)(C)CC(O)C1=O (stereo not drawn),inactive: -1.86%,
Nc1ncnc2c1c(I)cn2[C@@H]1C[C@H](N)[C@@H](O)[C@H]1O,inactive: -30.9%,
CN(C)c1ccc(-c2nc(N(C)Cc3ccco3)c3ccccc3n2)cc1,inactive: 1.02%,
CCCC[C@H]1COCCS(=O)(=O)N1Cc1cccc(Cl)c1,inactive: -31.6%,
CNc1cc(OC)c(C(=O)N[C@H]2CCN(Cc3ccccc3)[C@H]2C)cc1Cl,inactive: -27.4%,
C[C@H](CCC(=O)O)[C@H]1CC[C@H]2[C@@H]3[C@H](O)C[C@@H]4C[C@H](O)CC[C@]4(C)[C@H]3CC[C@]12C,inactive: -6.24%,
Cc1ccc(C(=O)Nc2cnn(-c3ccc(C(=O)N(C)Cc4n[nH]c5c4CCCC5)cc3)c2)c(C)c1,inactive: 5.67%,
COc1ccccc1C1CN(CCNC(=O)[C@@H]2CSC(=O)N2)Cc2ccccc2O1 (stereo partly drawn),inactive: 3.29%,
C[N+](C)(C)CC[N+]1(C)Cc2c(Cl)c(Cl)c(Cl)c(Cl)c2C1,inactive: -22.1% and inactive: 10.8%,
CN1CCN(c2c(F)cc3c(=O)c(C(=O)O)cn(CCF)c3c2F)CC1,inactive: -19.7%,
Cc1cccc(CNC(=O)c2c3n(c(C)cc2=O)-c2ccccc2SC(c2sccc2C)C3)n1 (stereo not drawn),inactive: -8.95%,
COc1cccc(Cn2c(=O)c(-c3cccs3)nc3cnc(Nc4ccccc4)nc32)c1,inactive: -80.1%,
O=C(/C=C/c1ccc(O)c(O)c1)OCCc1ccccc1,inactive: 0.549% and inactive: -9.73% and inactive: -25.3%,
CCC(=O)NCc1nc(-c2cccc(NC(=O)c3ccc(C)s3)c2)oc1C,inactive: -13.9%,

SMILES,activation,Potency
NCC(O)CC(=O)O (stereo not drawn),inactive: -10.2%,
COc1ccc(CN2CC[C@H]3C=CC[C@@H](C(=O)N4CCN(c5ccccc5)CC4)[C@H]3C2=O)cc1OC,inactive: -20.9%,
[C-]#[N+]c1cc(-c2ccncc2)c(C)[nH]c1=O,inactive: -4.45%,
COCCn1c(=O)cnc2cnc(Oc3ccc(OC)cc3)nc21,inactive: -0.689%,
CC(=O)N[C@@H](C)C(=O)NCC1Cc2cc(C)cc(-c3cnccn3)c2O1 (stereo partly drawn),inactive: -5.02%,
COc1ccccc1C1CN(CC(=O)NCC2OCCc3ccccc32)Cc2ccccc2O1 (stereo not drawn),inactive: 1.71%,
COc1ccc(-c2nc3cncnc3n(-c3ccccc3)c2=O)cc1,inactive: -27.6%,
COc1ncc2ncc(=O)n(C[C@H]3CCCO3)c2n1,inactive: -6.06%,
CC(=O)OCC(CCn1cnc2cnc(N)nc21)COC(C)=O,inactive: -11.2%,
NNc1nncc2ccccc12,inactive: -13.7% and inactive: 4.51% and inactive: -15.7%,
COCC(=O)N1CCC[C@@]2(CCN(C(=O)Nc3ccccc3)C2)C1,inactive: 1.32%,
Cc1ccc(CN2CCOc3ccc(CN4CCC(O)(c5cccnc5)CC4)cc3C2)cc1,inactive: -12.6%,
N[C@](CC1c2ccccc2Oc2ccccc21)(C(=O)O)[C@H]1C[C@@H]1C(=O)O,inactive: 0.65%,
CC[C@H](C)[C@H](NC(=O)[C@H](CCCN=C(N)N)NC(=O)[C@H](CCCN=C(N)N)NC(=O)[C@H](CC(C)C)NC(=O)[C@H](Cc1ccccc1)NC(=O)CNC(=O)CN)C(=O)N[C@@H](CCCN=C(N)N)C(=O)N1CCC[C@H]1C(=O)N[C@@H](CCCCN)C(=O)N[C@@H](CC(C)C)C(=O)N[C@@H](CCCCN)C(=O)O,inactive: -3.75%,
COc1cccc(Cn2c(=O)cnc3cnc(OCc4ccccc4)nc32)c1,inactive: -0.94%,
C1CNCCN1,inactive: -12.5% and inactive: 1.71%,
COc1ncc2nc(-c3cc(F)cc(F)c3)c(=O)n(C)c2n1,inactive: -2.89%,
Cc1c(C(=O)NCCCc2ccncc2)cnn1-c1ncc2c(n1)-c1ccccc1CC2,inactive: -5.54%,
CN(CCO)C(=O)c1cn(C2CCCN(Cc3cccc4ccccc34)C2)nn1 (stereo not drawn),inactive: -8.25%,
O=C(Nc1cccc(F)c1)N1CCC2(CC1)CCN(C(=O)c1cccc(F)c1)CC2,inactive: -10.9%,
CC(C)C[C@H](NC(=O)CNC(=O)[C@H](Cc1ccc(O)cc1)NC(=O)[C@H](CO)NC(=O)[C@H](Cc1c[nH]c2ccccc12)NC(=O)[C@H](Cc1cnc[nH]1)NC(=O)[C@@H]1CCC(=O)N1)C(=O)N[C@@H](CCCN=C(N)N)C(=O)N1CCC[C@H]1C(=O)NCC(N)=O (stereo in doubt),inactive: -19.6%,
CC(C)C[C@@H](COc1ccccc1)N1CCN(C)CCC1=O,inactive: 3.89%,
COc1ccc2[nH]cc(CCNc3ccnc(-c4ccoc4)n3)c2c1,inactive: -15.8%,
CC1(C)S[C@@H]2[C@H](NC(=O)Cc3ccccc3)C(=O)N2[C@H]1C(=O)O (tested in a mixture with another compound),inactive: -5%,
CNc1ncnc2ccc(-c3ccccc3OC)cc12,inactive: -7.16%,
COc1c2occc2c(OC)c2c(=O)cc(C)oc12,inactive: -20% and inactive: -5.35%,

SMILES,activation,Potency
CC(C)c1c(C(=O)NCCN2CCOCC2)cnn1-c1nccc(-c2ccco2)n1,inactive: -10.9%,
O=C(N[C@@H]1c2ccccc2C2(CCN(Cc3c(O)ccc4ccccc34)CC2)[C@H]1O)c1ccccc1,inactive: 4.49%,
Cc1ccc2c(c1)C(=O)C1(O)CCN(c3ccccc3)C1=N2 (stereo not drawn),inactive: -161%,
CCCCCCCCCCCCCCCCCC(=O)OCCO,inactive: -6.86%,
N#Cc1ccc(CN2CC[C@@]3(CCCN(C(=O)c4cc(C(F)(F)F)cc(C(F)(F)F)c4)C3)C2)cc1,inactive: -20.6%,
CC[C@H](C)C(=O)O[C@H]1CCC=C2C=C[C@H](C)[C@H](CC[C@@H]3C[C@@H](O)CC(=O)O3)[C@H]21,inactive: -25.7% and inactive: -77.4%,
COc1ccc(CN2Cc3ccccc3OC(c3ccccc3OC)C2)c(O)c1 (stereo not drawn),inactive: 1.89%,
COCC(=O)N1CCC2(CC1)CCN(C(=O)Nc1cccc(C#N)c1)CC2,inactive: 5.3%,
C[C@@H]1CN(Cc2ccc3c(c2)CN(Cc2cccn2-c2cccnc2)CCO3)C[C@H](C)O1,inactive: 2.92%,
CC1(C)CCC[C@]2(C)C3CC(=O)O[C@@]3(C)CC[C@H]12 (stereo partly drawn),inactive: -13.5%,
COc1ccc(CCN(C)CCCC(C#N)(c2cc(OC)c(OC)c(OC)c2)C(C)C)cc1OC (stereo not drawn),inactive: -19.6% and inactive: -16% and inactive: -13.1%,
Clc1ccccc1-c1nc(-n2ccnc2)c2ccccc2n1,inactive: -3.07%,
COc1ccccc1CN1CC[C@@]2(CCCN(C(=O)c3ccco3)C2)C1,inactive: -13.2%,
Cc1noc(C)c1C(=O)N1CCC2(CCCN(C(=O)Nc3cccc(C#N)c3)C2)CC1,inactive: -14%,
Nc1cc(C(Cl)=C(Cl)Cl)c(S(N)(=O)=O)cc1S(N)(=O)=O,inactive: -14.9% and inactive: -2.53% and inactive: 1.09%,
Cc1ccc(CN2C[C@H](Sc3ccccn3)C[C@H]2C(=O)Nc2ccc3sc(C)nc3c2)c(C)c1,inactive: -1.6%,
COc1ccccc1CN1CCCC2(CCN(C(=O)c3cc(C(F)(F)F)cc(C(F)(F)F)c3)CC2)C1,inactive: 0.0138%,
OC1(c2ccc3c(c2)CN(Cc2nccs2)CCO3)CCN(c2ccccc2F)CC1,inactive: 10.5%,
COc1ccccc1CN1CCCC2(CCN(C(=O)c3ccco3)CC2)C1,inactive: -6.92%,
COc1ccc(-c2nc3cnc(Nc4ccccc4)nc3n(Cc3cccs3)c2=O)cc1,inactive: 1.12%,
CN(C)c1ncc2nc(-c3ccc(F)cc3)c(=O)n(C)c2n1,inactive: -9.61%,
Cn1ccc2cc(NC(=O)Nc3cccnc3)ccc21,inactive: -28.3%,
COc1ccc(SCCN2CC[C@@H](C)CCC2=O)cc1,inactive: -6.06%,
CN1C(CSCC(F)(F)F)Nc2cc(Cl)c(S(N)(=O)=O)cc2S1(=O)=O (stereo not drawn),inactive: -5.53%,
O=CC(=O)c1ccc(Cl)cc1,inactive: -27.5%,
CC(=O)[C@]1(O)Cc2c(O)c3c(c(O)c2[C@@H](O[C@H]2C[C@H](N)[C@H](O)[C@H](C)O2)C1)C(=O)c1ccccc1C3=O,,active: 100 µM
